The list shows a part of the results. These are noisy estimates, calculated here from bound and input reads.
Each sequence was assayed against T1, Pho4 (S. cerevisiae) (UniProt P07270) (assay: relative binding free energy (BET-seq); higher = weaker binding). Conditions: reference: library average.
T1 sequence: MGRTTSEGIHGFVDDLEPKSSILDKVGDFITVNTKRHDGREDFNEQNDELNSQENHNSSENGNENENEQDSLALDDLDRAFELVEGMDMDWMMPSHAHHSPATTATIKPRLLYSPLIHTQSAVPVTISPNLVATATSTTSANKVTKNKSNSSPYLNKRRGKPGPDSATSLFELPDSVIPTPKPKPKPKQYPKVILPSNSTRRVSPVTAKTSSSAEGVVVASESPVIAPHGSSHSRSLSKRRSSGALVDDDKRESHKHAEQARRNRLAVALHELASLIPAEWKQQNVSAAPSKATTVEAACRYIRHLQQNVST

Relative binding free energy, 0.25 kcal/mol:
ACCGTCACGTGAGGGT
GGTATCACGTGAGGTG
AGTTTCACGTGGGTTA

Relative binding free energy, 0.37 kcal/mol:
TAGCTCACGTGATTTG
GGTTTCACGTGGTTAC

Relative binding free energy, 0.22 kcal/mol:
CTTGTCACGTGCTCGT

Relative binding free energy, 0.06 kcal/mol:
AGAGTCACGTGGGTCG
ATCGGCACGTGATGCG
ACGTGCACGTGATATG

Relative binding free energy, 0.32 kcal/mol:
AATAGCACGTGAAATG

Relative binding free energy, -0.09 kcal/mol:
TGGGTCACGTGGCATA
CTGGTCACGTGGTCAG
GTGGACACGTGGTGCA
AGGTACACGTGGCTTG
GTACGCACGTGTTGTT
CTAGGCACGTGGATTG

Relative binding free energy, 0.16 kcal/mol:
TTGCGCACGTGAGGTG
TTATACACGTGACGGG
TCATTCACGTGGTTGA
CTGGACACGTGTGTAG
TTTGTCACGTGTGCTA
CGGTTCACGTGTTTTT
TGGGACACGTGTAGAG
TAAGTCACGTGCGTAA

Relative binding free energy, -0.27 kcal/mol:
ATGCGCACGTGGAGTG

Relative binding free energy, -0.13 kcal/mol:
GGCGGCACGTGCTGTA
ATACGCACGTGTATGT
TGGGCCACGTGGGCCG
TTCGGCACGTGGTGGC

Relative binding free energy, 0.27 kcal/mol:
AGCTGCACGTGAGGTT
GATAGCACGTGTTTAA
GTTGCCACGTGAAAGT
TTGTCCACGTGAGGAG
AGAATCACGTGCGGTA

Relative binding free energy, 0.19 kcal/mol:
ATTTACACGTGTAGTC
TGAGTCACGTGATTGT
GGTCTCACGTGTTAGT
TCGTTCACGTGTCGGG
GTTGTCACGTGGCTGA

Relative binding free energy, -0.29 kcal/mol:
ATTGGCACGTGGTCGA
TGGGGCACGTGCGCTT
CGTTGCACGTGGGTAT

Relative binding free energy, 0.09 kcal/mol:
AGTTGCACGTGTATTT
TATGTCACGTGTTACG
TTAATCACGTGCTTTT
GGGTACACGTGTATAG
TGAAACACGTGTGGGG

Relative binding free energy, 0.14 kcal/mol:
TGGAACACGTGTCAGT
ACTTTCACGTGTTGAT

Relative binding free energy, 0.3 kcal/mol:
GGCTTCACGTGGTTCG
TAGTTCACGTGCTGGT

Relative binding free energy, 0.11 kcal/mol:
TGAGCCACGTGAGGAG
GGGGACACGTGATCTG
TTGTACACGTGGTTTT
ACTTTCACGTGGGTTT
TATGTCACGTGGTTCG

Relative binding free energy, 0.28 kcal/mol:
TTATTCACGTGGATTC
TGTTTCACGTGGACAA
TCTTTCACGTGTGTTT
CGAATCACGTGTTTAG

Relative binding free energy, 0.17 kcal/mol:
AGTTACACGTGGATAG
TTGGTCACGTGTGGGT
TCTTTCACGTGTTGAT
CTGGTCACGTGATGTT
GTGTTCACGTGTTATT

Relative binding free energy, 0.12 kcal/mol:
GGCGGCACGTGAGCTG
CGTTACACGTGGGGCT
TGCTTCACGTGTATGG
TTTGACACGTGATTAT
CATATCACGTGTATGT
TCTTGCACGTGTAAGG

Relative binding free energy, -0.31 kcal/mol:
AGTGGCACGTGCTTGA

Relative binding free energy, -0.28 kcal/mol:
AGGGCCACGTGCGCGG

Relative binding free energy, -0.07 kcal/mol:
ATTGGCACGTGTCATT

Relative binding free energy, -0.01 kcal/mol:
AGTCGCACGTGTGCTG
TATGACACGTGGTAGA
TACAGCACGTGTGGTG
TACTGCACGTGTAGGG
TTGGTCACGTGCTGCG
GGTTACACGTGTCAGG

Relative binding free energy, -0.05 kcal/mol:
AATGTCACGTGGGCGC
AAGCGCACGTGTGGAG
ATGAGCACGTGGTTCT
AATAACACGTGTAGTG

Relative binding free energy, -0.39 kcal/mol:
ATAGGCACGTGGGGCA

Relative binding free energy, 0.21 kcal/mol:
TTGGGCACGTGAGATA
GGTGACACGTGATGGG
GGTCTCACGTGTGAGG

Relative binding free energy, 0.01 kcal/mol:
TTATCCACGTGGTGAG
GAGTGCACGTGGCAGT
TCTTGCACGTGTTCAG
ATGGTCACGTGGCCAG
TCGATCACGTGGGCTG

Relative binding free energy, -0.11 kcal/mol:
GCTAACACGTGGGTTT
GATGACACGTGGGGCA
ATAGGCACGTGGTTAT
TTACACACGTGGGGGG
AGATGCACGTGGTGAA
GTTAGCACGTGCTGGA
AATCGCACGTGTTGGT

Relative binding free energy, 0.05 kcal/mol:
TAGCACACGTGTGTTG
TTGGACACGTGTGCCT
GGTCGCACGTGTGTCT
TCCGTCACGTGGCGTG
GATAGCACGTGTGTAG
GTAGGCACGTGTTGGC
TGGGTCACGTGGTCGA
TTAGGCACGTGACTCG

Relative binding free energy, -0.16 kcal/mol:
TTTGCCACGTGTTGAT
ATGGGCACGTGGTCTG

Relative binding free energy, 0.23 kcal/mol:
AGGTTCACGTGTTCAT
TGGCTCACGTGTAGCG
GATTGCACGTGGAATT

Relative binding free energy, -0.26 kcal/mol:
CGAGGCACGTGGGCGC
CGCAGCACGTGGGGTA
GGTGGCACGTGCGCGA

Relative binding free energy, 0.18 kcal/mol:
AAGGTCACGTGAGGCA

Relative binding free energy, 0.15 kcal/mol:
CGTGTCACGTGTCGTA
ATTCGCACGTGAGGTG
TTATGCACGTGAAGTT
GGTGACACGTGAGCGG

Relative binding free energy, 0.03 kcal/mol:
GTCTGCACGTGTTCGT
CATTGCACGTGGGGGT
TCTGGCACGTGGCGCT
GGGCGCACGTGTGGAA
ATTGTCACGTGGCGTC
GATCGCACGTGGTGTA

Relative binding free energy, 0.1 kcal/mol:
GTTTGCACGTGCTGAA
GTAGTCACGTGGTGCT
TTTCTCACGTGGTAAG

Relative binding free energy, 0.2 kcal/mol:
GTAGTCACGTGTTTCT
TTGGTCACGTGGAGGC
GTGTTCACGTGTCAGT
TGGGTCACGTGGTTTC
GGCAGCACGTGACTGG
TTATTCACGTGGCGTG

Relative binding free energy, -0.08 kcal/mol:
GGGGGCACGTGTTTTA
ATGGTCACGTGGGGTG
TAAAGCACGTGTAGGA

Relative binding free energy, 0.29 kcal/mol:
GAGCTCACGTGGCGGT
GGTTTCACGTGTTTAT
GTGGTCACGTGAGTTC
AAGTTCACGTGATTCG

Relative binding free energy, -0.04 kcal/mol:
TTTGTCACGTGGTCTG
AAGGGCACGTGATGGT
TGCATCACGTGGGTTT
GGGTACACGTGCTTTG
ATGGGCACGTGATAGG
ATAGACACGTGGAGGG

Relative binding free energy, -0.14 kcal/mol:
TAGCGCACGTGGTAGA
AGTGGCACGTGCGGCA
TATTGCACGTGTTTAT

Relative binding free energy, 0.08 kcal/mol:
GAATGCACGTGGTATG
GTTTGCACGTGATCGT
CATGGCACGTGTAGTG
GCGGGCACGTGAGCTG

Relative binding free energy, -0.17 kcal/mol:
CGGTACACGTGGGTAT

Relative binding free energy, 0.31 kcal/mol:
GATTACACGTGAATGT
GTGTTCACGTGTCGAG
AAGCTCACGTGATGTG
GTTGTCACGTGAGAGT

Relative binding free energy, 0.24 kcal/mol:
TAGGTCACGTGAGCGT
GGGGACACGTGATAAT
ATGTTCACGTGCGAGT
TAAATCACGTGTCGGG
TGGGTCACGTGAAGTC

Relative binding free energy, -0.18 kcal/mol:
CTTGGCACGTGGTGTA
TGCTGCACGTGCTTGT

Relative binding free energy, -0.25 kcal/mol:
ATGGGCACGTGGGTTC

Relative binding free energy, 0.04 kcal/mol:
TAGAGCACGTGCGGGC
TTAATCACGTGGATTG
AAAAACACGTGGTTTT
TATATCACGTGTGTCG
TAGGCCACGTGTGAGA

Relative binding free energy, 0 kcal/mol:
AAAAGCACGTGTCGGG
TTGGACACGTGCTATG
CAGGGCACGTGTGCTT
CATATCACGTGTTGGT
AGCGTCACGTGTGCGT

Relative binding free energy, -0.03 kcal/mol:
CAGTGCACGTGTTGTT
GGTTCCACGTGGCGTT
GTGGGCACGTGTGGAC

Relative binding free energy, -0.02 kcal/mol:
GGGGGCACGTGTCGGG
TCGTACACGTGCGTGG
TATTACACGTGGATTA
GCAGGCACGTGAGCGG
CTGTACACGTGTTGAT
TGTATCACGTGGGTGC
CGTTCCACGTGTGGGG
CGGTACACGTGGCTGT

Relative binding free energy, 0.02 kcal/mol:
TTACACACGTGGAGTT
GGAGCCACGTGGTTTT
TACGTCACGTGGGTCT
GTGCACACGTGGGAGG
CCGGTCACGTGGTCGG

Relative binding free energy, 0.07 kcal/mol:
ATTGTCACGTGTGGAC
GGTGTCACGTGATGCA
GACTGCACGTGTAGGT
GTAGACACGTGGCTGG
AGTTACACGTGTGTAA
GTGTGCACGTGTAGCG
TTTTACACGTGGCAAT

Relative binding free energy, -0.12 kcal/mol:
TAGCACACGTGTTGTG
TGGGGCACGTGCTGTC
TGTAACACGTGGTGCT

Relative binding free energy, 0.13 kcal/mol:
AAATACACGTGTGTTT
TAGGTCACGTGGTTAC
GATATCACGTGTGCGG
AGGTACACGTGTGGCT

Relative binding free energy, -0.19 kcal/mol:
ATTAGCACGTGGGGCG
GTGGGCACGTGGTCTC
CGTGGCACGTGGCGTA
TGGGGCACGTGCTTTA

Relative binding free energy, 0.33 kcal/mol:
GTATGCACGTGAGTTC

Relative binding free energy, -0.15 kcal/mol:
TTTTGCACGTGGATTC
CTGGGCACGTGCTCGT
CGGAACACGTGGTGTT
AGGAGCACGTGGTGGG

Relative binding free energy, -0.21 kcal/mol:
CAGGGCACGTGTGTGC
CGGACCACGTGGTGTG

Relative binding free energy, -0.06 kcal/mol:
TAGGACACGTGGAGTT

Relative binding free energy, -0.1 kcal/mol:
ATAGGCACGTGGATGC
ATATGCACGTGTTGGC
CATGTCACGTGGGGCT

Relative binding free energy, 0.4 kcal/mol:
TAATTCACGTGAGTGC

Relative binding free energy, 0.26 kcal/mol:
ATAATCACGTGATTGT
GCTTTCACGTGGCATG

Relative binding free energy, -0.23 kcal/mol:
ACGAGCACGTGGGGGT

Relative binding free energy, 0.45 kcal/mol:
TTTTCCACGTGAGTTT
TAGTACACGTGAATAG
